Values joined by “and” are separate entries in the source; they are usually repeats but may differ in a detail not shown here. Identical values can stand only once. Screen size: about 16,000 compounds; about 40 (0.2%) were called active. Inconclusive results (about 1%) are left out. Calls follow the shape of the dose curve; as a rule, active = well fitted activation curve with a large enough effect; inconclusive = small, poorly fitted or top-dose-only effect, or another doubt; inactive = no such curve, though single readings can be large or run the other way. The list shows a part of the results.
% is scaled to controls: 0 for no effect and ±100 for the full control effect.

The experiment has as its target Rap guanine nucleotide exchange factor 4 (Homo sapiens) (UniProt Q8WZA2). The experiment can be described thus: Validation qHTS for agonist of cAMP-regulated guanine nucleotide exchange factor 4 (EPAC2).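 Also: exchange makes BODIPY-GDP fluorescence drop when released from Rap1B; series mostly up to about 150 µM.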 The conditions noted are these: EPAC2 Rap1B BODIPY-GDP exchange, fluorescence; activation: stronger effect = higher value. In short, it runs like this: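 Fluorescent exchange assay: 100 nM EPAC2 with 250 nM RAP1B-BODIPY-GDP and 50 uM GDP; compound added, 5 min at room temperature, then read (ex 480/em 540 nm) every 5 min for 30 min. Normalized to 6.5 mM cAMP agonist control.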
Chain of UniProt Q8WZA2 (Q8WZA2 whole entry, looked up): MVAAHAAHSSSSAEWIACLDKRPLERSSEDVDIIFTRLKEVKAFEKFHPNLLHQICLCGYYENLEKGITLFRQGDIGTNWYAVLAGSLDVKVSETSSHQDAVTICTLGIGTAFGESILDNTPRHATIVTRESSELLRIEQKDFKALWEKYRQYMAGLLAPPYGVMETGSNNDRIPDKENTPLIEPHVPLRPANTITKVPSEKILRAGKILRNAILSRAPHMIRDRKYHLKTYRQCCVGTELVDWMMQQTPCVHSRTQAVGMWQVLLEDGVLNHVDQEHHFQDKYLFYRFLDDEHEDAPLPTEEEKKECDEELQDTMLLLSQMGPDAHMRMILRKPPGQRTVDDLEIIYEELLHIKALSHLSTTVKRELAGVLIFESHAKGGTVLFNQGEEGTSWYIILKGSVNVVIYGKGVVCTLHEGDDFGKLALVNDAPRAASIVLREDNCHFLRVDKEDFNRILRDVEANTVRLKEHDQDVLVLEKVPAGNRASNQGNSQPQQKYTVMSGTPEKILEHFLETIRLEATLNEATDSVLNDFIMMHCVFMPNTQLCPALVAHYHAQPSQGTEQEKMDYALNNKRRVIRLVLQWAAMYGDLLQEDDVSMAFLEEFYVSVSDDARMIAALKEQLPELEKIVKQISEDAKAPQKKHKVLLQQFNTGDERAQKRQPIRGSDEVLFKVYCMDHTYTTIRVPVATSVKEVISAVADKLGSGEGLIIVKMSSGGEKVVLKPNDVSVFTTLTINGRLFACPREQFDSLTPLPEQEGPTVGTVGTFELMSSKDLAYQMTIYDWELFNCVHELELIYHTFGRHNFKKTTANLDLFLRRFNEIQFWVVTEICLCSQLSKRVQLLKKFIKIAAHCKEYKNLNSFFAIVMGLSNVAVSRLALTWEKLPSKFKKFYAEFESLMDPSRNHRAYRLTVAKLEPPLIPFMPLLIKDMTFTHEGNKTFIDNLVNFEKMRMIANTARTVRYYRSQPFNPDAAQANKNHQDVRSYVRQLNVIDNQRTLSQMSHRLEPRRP
(In general: In qHTS, concentration-response curves come from the screen itself.)
Take `CCCCCCCCCCCCCCCC(=O)O[C@H](CC(=O)O)C[N+](C)(C)C`: the activation was inactive: -39.9%.

As to `CCCOC(C(=O)OC1CCN(C)CC1)(c1ccccc1)c1ccccc1`, the activation is inactive: -35.6%.

Consider `CC1(C)CC[C@]2(C(=O)O)CC[C@@]3(C)C(=CCC4[C@@]5(C)CCC(O)C(C)(C)C5CC[C@@]43C)C2C1` (some centres undefined), for which the activation was inactive: -12.2%.

In the case of `COc1cccc(Cn2c(=O)c(-c3ccc(Cl)cc3)nc3cnc(N4CCN(C)CC4)nc32)c1`, the activation is inactive: -1.97%.

With `CCCCCC1C(=O)CCC1CC(=O)OC` (centres undefined), the activation was inactive: -15.5%.

As to `Cn1cccc1C(=O)N1CCC[C@@]2(CCN(C(=O)Nc3cccc(F)c3)C2)C1`, the activation is inactive: -12.4%.

Consider `N#Cc1ccc(CN2CC3(CCN(C(=O)c4ccco4)CC3)C2)cc1`, for which the activation is inactive: -6.98%.

For `C=C(CC)C(=O)c1ccc(OCC(=O)O)c(Cl)c1Cl`, the activation is inactive: 8.22% and inactive: -29.4%.

As to `Cc1cnc(SCC2CCCO2)nc1C1CCCN(Cc2cc3c(cc2Cl)OCO3)C1` (centres undefined), the activation was inactive: -5.62%.

Take `OCCCNCc1cc2cc3c(cc2nc1N1CCN(c2cccc(Cl)c2)CC1)OCO3`: the activation is inactive: -2.89%.

For the molecule `OC[C@H]1O[C@@H](O[C@@H]2[C@@H](CO)O[C@](O)(CO)[C@H]2O)[C@H](O)[C@@H](O)[C@H]1O`, the activation was inactive: -6.7% and inactive: -5.84%.

For `CCCCCCOC(=O)C1(O)CC2OC1(C)n1c3ccccc3c3c4c(c5c6ccccc6n2c5c31)C(=O)NC4` (centres undefined), the activation is inactive: 6.87%.

Turning to `CCCC[C@@]1(C2CCCC2)Cc2cc(OCC(=O)O)c(Cl)c(Cl)c2C1=O`, the activation was inactive: -31.1%.

Turning to `Nc1ccc(S(=O)(=O)NC(=O)c2ccccc2)cc1`, the activation is inactive: -1.75% and inactive: 6.35%.

`COc1cc2c(cc1OC)C1CC(=O)C(CC(C)C)CN1CC2` (centres undefined): the activation was inactive: -27.6%.

As for `O=C(c1cc(C(F)(F)F)cc(C(F)(F)F)c1)N1CCC2(CC1)CN(Cc1ccncc1)C2`, the activation is inactive: -9.88%.

For the molecule `C[N+](C)(C)CCOP(=O)(O)OP(=O)([O-])OC[C@H]1O[C@@H](n2ccc(N)nc2=O)[C@H](O)[C@@H]1O`, the activation is inactive: 2.13% and inactive: 2.57% and inactive: -8.29%.

As for `NNC(=O)CP(=O)(c1ccccc1)c1ccccc1`, the activation is inactive: -12.9%.

`C[C@](N)(Cc1ccc(O)cc1)C(=O)O`: the activation is inactive: -6.36% and inactive: -2.47%.

For `COc1cc2c(cc1OC)[C@@H]1CC(=O)[C@@H](CC(C)C)CN1CC2`, the activation was inactive: -0.646%.

For `Cc1ccccc1-c1cc(-n2ccnc2)ncn1`, the activation was inactive: -6.44%.

In the case of `COc1ccc(NC(=O)N2CCC3(CC2)CCN(C(=O)c2csnn2)CC3)cc1`, the activation is inactive: -10.4%.

Regarding `CS(=O)(=O)N1CCC2(CCCN(c3ncccn3)C2)CC1`, the activation is inactive: -2.88%.

Regarding `Cc1cccc(C)c1NC(=O)c1ccccc1C(=O)O`, the activation is inactive: -34.8%.

For `CCNC(=O)[C@H]1O[C@@H](n2cnc3c(N)nc(NCCc4ccc(CCC(=O)O)cc4)nc32)[C@H](O)[C@@H]1O`, the activation was inactive: 10.7%.

Regarding `c1ccc2c(Nc3ccncc3)nc(-c3ccoc3)nc2c1`, the activation is inactive: -12.4%.

As for `CNCCNS(=O)(=O)c1cccc2cnccc12`, the activation is inactive: -2.86% and inactive: -28.3%.

Regarding `O=C(O)Cn1c(C(=O)Nc2nc(-c3ccccc3Cl)cs2)cc2ccccc21`, the activation was inactive: -30.8%.

Regarding `CC1CC[C@@]23CCC4(C)[C@@]5(C)CCC6C(C)(C)C(=O)CC[C@@]6(C)C5C=C[C@@]4(OC2=O)C3C1C` (some centres undefined), the activation was inactive: -11.7%.

Turning to `COc1cc(-c2c(OC)cccc2OC)cc2c1OCCN(Cc1cn[nH]c1-c1ccc(Cl)cc1)C2`, the activation is inactive: -5.17%.

For the molecule `COc1c2c(cc3c1C(CC(=O)c1c(O)c(OC)c4occc4c1OC)[N+](C)(C)CC3)OCO2` (centres undefined), the activation is inactive: -28%.

Regarding `Cc1ccc2cc(CN(C(=O)c3ccc4c(c3)OCO4)C3CC3)c(N(C)C)nc2c1`, the activation was inactive: 0.168%.

Take `N#CC[C@H](Cc1ccccc1)N1CCN(CCc2ccccc2)CCC1=O`: the activation is inactive: -21.6%.

In the case of `O=C1CC(c2ccccc2)Oc2ccccc21` (centres undefined), the activation was inactive: -1.79%.

Take `C[C@@H]1NS(=O)(=O)[C@H]2C[C@@H]3C=C[C@]2(O3)[C@H]1OC(=O)Nc1ccc(C(F)(F)F)cc1[N+](=O)[O-]`: the activation is inactive: -15%.

In the case of `FCOC(C(F)(F)F)C(F)(F)F`, the activation was inactive: -0.579%.

Regarding `CS(=O)(=O)Nc1cccc(-c2nc(NCCN3CCOCC3)c3ccccc3n2)c1`, the activation is inactive: -4.83%.

With `CS(=O)(=O)c1ccc([C@@H](O)[C@@H](CF)NC(=O)C(Cl)Cl)cc1`, the activation was inactive: -17.2%.

As to `CCN(CC)CCCC(C)Nc1ccnc2cc(Cl)ccc12` (centres undefined), the activation is inactive: -8.87% and inactive: 0.526% and inactive: -22.7%.

Take `CCCN1CCC(=O)N(CCN=[N+]=[N-])CC1`: the activation is inactive: -6.79%.

`CCc1nc2cc(C(=O)N(C)C3CCOC3)cc(NC(=O)c3ccccc3OC)c2n1C` (centres undefined): the activation is inactive: -5.16%.

For `O=C(c1cc(C(F)(F)F)cc(C(F)(F)F)c1)N1CCC2(CCN(Cc3ccncc3)CC2)CC1`, the activation is inactive: -16.4%.

On to `CCOC(=O)C(C#N)=C(c1ccccc1)c1ccccc1`, for which the activation is inactive: 6.2%.

Turning to `CS(=O)(=O)Nc1cc2occ(NC=O)c(=O)c2cc1Oc1ccccc1`, the activation is inactive: -0.0333%.

As for `N[C@@H](CC(=O)O)C(=O)O`, the activation was inactive: -1.78% and inactive: 3.34% and inactive: -3.41%.

With `O=C(O)c1cc(-c2ccc(-c3c(-c4ccc5c(c4)OCO5)noc3-c3ccsc3)cc2)nc2ccccc12`, the activation was inactive: -10%.

On to `CNc1ncnc2c1ncn2[C@@H]1O[C@H](CO)[C@@H](O)[C@H]1O`, for which the activation was inactive: 8.03% and inactive: -19.1%.

As for `CC(C)OC(=O)C(C(=O)OC(C)C)=C1SC=CS1`, the activation is inactive: -25.5%.

As to `CC(C)C[C@H](NC(=O)[C@@H](Cc1c[nH]c2ccccc12)NC(=O)[C@H](Cc1ccc(O)cc1)NC(=O)[C@H](CO)NC(=O)[C@H](Cc1c[nH]c2ccccc12)NC(=O)[C@H](Cc1cnc[nH]1)NC(=O)[C@@H]1CCC(=O)N1)C(=O)N[C@@H](CCCN=C(N)N)C(=O)N1CCC[C@@H]1C(=O)NCC(N)=O`, the activation is inactive: -38.6%.
